According to the supplement of paper PMC4967469:

Experiments:
Experiment in all cases: Viability of human cancer cell lines after 72 h of drug (GDSC screen)
Vinblastine = compound: CC[C@]1(O)C[C@@H]2CN(CCc3c([nH]c4ccccc34)[C@@](C(=O)OC)(c3cc4c(cc3OC)N(C)[C@H]3[C@@](O)(C(=O)OC)[C@H](OC(C)=O)[C@]5(CC)C=CCN6CC[C@]43[C@@H]65)C2)C1 [Vinblastine]; conditions: top dose 0.1 µM; top dose inferred
Experimental: (§1)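 Human cancer cell lines in 384-well plates, medium with 10% serum, drug for 72 h over a 256-fold dose range (nine 2-fold or five 4-fold steps up to the top dose). Adherent lines were fixed and stained with the nucleic acid dye Syto60, suspension lines read with resazurin; signal relative to control wells, capped at 0 and 100%. One two-parameter sigmoid per drug and line, fitted in a mixed model over all curves with the slope shared within a line.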

XMD13-2 = compound: O=C(NC1CC1)c1cccc(-c2ccc3c(NC(=O)C4CC4)n[nH]c3c2)c1 [XMD13-2]; conditions: top dose 10.24 µM; top dose inferred
Experimental: as §1

Afatinib = compound: CN(C)C/C=C/C(=O)Nc1cc2c(Nc3ccc(F)c(Cl)c3)ncnc2cc1O[C@H]1CCOC1 [Afatinib]
Experimental: as §1

SNX-2112 = compound: CC1(C)CC(=O)c2c(C(F)(F)F)nn(-c3ccc(C(N)=O)c(N[C@H]4CC[C@H](O)CC4)c3)c2C1 [SNX-2112]; conditions: top dose 2.56 µM
Experimental: as §1

PF-562271 = compound: CN(c1ncccc1CNc1nc(Nc2ccc3c(c2)CC(=O)N3)ncc1C(F)(F)F)S(C)(=O)=O [PF-562271]; conditions: top dose 2.56 µM; top dose inferred
Experimental: as §1

[1] = top dose 0.5 µM, screen: GDSC drug entry 1032
[2] = top dose 10 µM, screen: GDSC drug entry 1377, top dose inferred

Row | Cell Line | AUC (Vinblastine) | IC50 (Vinblastine) [nM] | AUC (XMD13-2) | IC50 (XMD13-2) [nM] | AUC (Afatinib; [1]) | IC50 (Afatinib; [1]) [nM] | AUC (Afatinib; [2]) | IC50 (Afatinib; [2]) [nM] | AUC (SNX-2112) | IC50 (SNX-2112) [nM] | AUC (PF-562271) | IC50 (PF-562271) [nM]
1 | HuH-7 (liver, adherent) | 0.83 | 62.3 | 0.972 | > 10200 | 0.982 | > 500 | 0.986 | > 10000 | 0.895 | > 2560 |  | 
2 | IGR-37 (melanoma, adherent) | 0.452 | 4.69 | 0.989 | > 10200 | 0.989 | > 500 | 0.988 | > 10000 | 0.421 | 99 |  | 
3 | IGROV-1 (ovary, adherent) | 0.786 | 67.4 |  |  | 0.815 | 459 | 0.832 | > 10000 |  |  |  | 
4 | JEKO-1 (B-cell lymphoma, suspension) | 0.312 | 1.9 |  |  | 0.976 | > 500 | 0.981 | > 10000 |  |  |  | 
5 | JHOS-2 (ovary, adherent) | 0.643 | 16.7 | 0.939 | > 10200 | 0.724 | 152 | 0.716 | 2850 | 0.634 | 401 |  | 
6 | JHOS-4 (ovary, adherent) | 0.701 | 30 |  |  | 0.857 | > 500 | 0.713 | 3320 |  |  |  | 
7 | KARPAS-1106P (B-cell lymphoma, suspension) | 0.431 | 4.19 |  |  | 0.988 | > 500 | 0.993 | > 10000 |  |  |  | 
8 | KATOIII (stomach, semi-adherent) | 0.708 | 22.8 |  |  | 0.99 | > 500 | 0.981 | > 10000 |  |  |  | 
9 | KNS-62 (lung squamous cell carcinoma, adherent) | 0.529 | 7.74 |  |  | 0.948 | > 500 | 0.821 | 9680 |  |  |  | 
10 | LU-65 (large cell lung carcinoma, suspension) | 0.987 | > 100 | 0.948 | > 10200 |  |  |  |  | 0.437 | 104 |  | 
11 | MEL-HO (melanoma, adherent) | 0.581 | 10.4 |  |  | 0.984 | > 500 | 0.983 | > 10000 |  |  |  | 
12 | MHH-CALL-2 (B-cell leukaemia, suspension) | 0.66 | 15.3 |  |  | 0.997 | > 500 | 0.997 | > 10000 |  |  |  | 
13 | MKN7 (stomach, adherent) | 0.794 | 65.1 |  |  | 0.867 | > 500 | 0.874 | > 10000 |  |  |  | 
14 | MOLM-16 (acute myeloid leukaemia, suspension) | 0.431 | 4.16 |  |  | 0.897 | 488 | 0.925 | > 10000 |  |  |  | 
15 | MOLT-16 (T-cell lymphoblastic leukaemia, suspension) | 0.262 | 1.55 |  |  | 0.96 | > 500 | 0.937 | > 10000 |  |  |  | 
16 | NCC010 (kidney, adherent) | 0.864 | 98 |  |  | 0.979 | > 500 | 0.919 | > 10000 |  |  |  | 
17 | NCI-H146 (small cell lung carcinoma, suspension) | 0.94 | > 100 |  |  | 0.994 | > 500 | 0.986 | > 10000 |  |  |  | 
18 | NCI-H508 (large intestine, semi-adherent) | 0.866 | > 100 |  |  | 0.613 | 79.2 | 0.691 | 3120 |  |  |  | 

Row | Cell Line | AUC (Vinblastine) | IC50 (Vinblastine) [nM] | AUC (XMD13-2) | IC50 (XMD13-2) [nM] | AUC (Afatinib; [1]) | IC50 (Afatinib; [1]) [nM] | AUC (Afatinib; [2]) | IC50 (Afatinib; [2]) [nM] | AUC (SNX-2112) | IC50 (SNX-2112) [nM] | AUC (PF-562271) | IC50 (PF-562271) [nM]
19 | NCI-H835 (lung carcinoid, suspension) | 0.89 | > 100 |  |  | 0.989 | > 500 | 0.972 | > 10000 |  |  |  | 
20 | NCI-H929 (myeloma, suspension) | 0.551 | 8.44 |  |  | 0.973 | > 500 | 0.962 | > 10000 |  |  |  | 
21 | NCI-H1105 (small cell lung carcinoma, suspension) | 0.549 | 8.27 |  |  | 0.992 | > 500 | 0.985 | > 10000 |  |  |  | 
22 | NCI-H1341 (small cell lung carcinoma, suspension) | 0.899 | 93.4 |  |  | 0.989 | > 500 | 0.977 | > 10000 |  |  |  | 
23 | NCI-N87 (stomach, adherent) | 0.502 | 6.34 |  |  |  |  |  |  |  |  |  | 
24 | OCI-LY7 (B-cell lymphoma, suspension) | 0.426 | 4.15 |  |  | 0.971 | > 500 |  |  |  |  |  | 
25 | PWR-1E (prostate, adherent) | 0.434 | 4.14 |  |  | 0.987 | > 500 | 0.98 | > 10000 |  |  |  | 
26 | RCH-ACV (B-cell leukaemia, suspension) | 0.472 | 5.33 |  |  | 0.979 | > 500 | 0.977 | > 10000 |  |  |  | 
27 | RH-18 (rhabdomyosarcoma, adherent) | 0.899 | > 100 |  |  | 0.97 | > 500 | 0.962 | > 10000 |  |  |  | 
28 | SK-GT-2 (stomach, adherent) | 0.552 | 8.73 |  |  | 0.317 | 9.35 | 0.131 | < 39.1 |  |  |  | 
29 | SK-MEL-31 (melanoma, adherent) | 0.771 | 49.4 |  |  | 0.983 | > 500 | 0.964 | > 10000 |  |  |  | 
30 | SUP-B8 (B-cell leukaemia, suspension) | 0.542 | 8.13 |  |  | 0.989 | > 500 | 0.979 | > 10000 |  |  |  | 
31 | TC-YIK (cervix, suspension) | 0.513 | 6.75 |  |  | 0.958 | > 500 | 0.929 | > 10000 |  |  |  | 
32 | TGBC24TKB (biliary tract, adherent) |  |  | 0.99 | > 10200 |  |  | 0.751 | 3110 | 0.921 | > 2560 | 0.964 | > 2560
33 | U031 (kidney, adherent) |  |  | 0.945 | > 10200 |  |  | 0.884 | > 10000 | 0.962 | > 2560 | 0.948 | > 2560
34 | U-266 (myeloma, semi-adherent) | 0.519 | 7.14 |  |  | 0.963 | > 500 | 0.957 | > 10000 |  |  |  | 
35 | VMRC-LCD (lung adenocarcinoma, adherent) | 0.464 | 5.07 |  |  | 0.993 | > 500 | 0.992 | > 10000 |  |  |  | 
36 | ZR-75-30 (breast, adherent) | 0.823 | > 100 |  |  | 0.698 | 152 | 0.522 | 738 |  |  |  | 

IC50 is the fitted dose that halves viability relative to control wells, and lower means more sensitive; a limit (>, <) means that the fit lies beyond the doses tested. AUC, from the same fit, is the share of area under the viability curve across the 256-fold dose range; it is 1 without any effect and falls as sensitivity rises. For some of these results: The top dose, if marked as inferred, is not printed in the source and was worked back from the curve model. For some of these results: Drugs with an entry number were screened twice under separate entries, and the two screens often disagree.
